According to PubChem BioAssay (NCI):
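Cultured in 96-well plates, cells were exposed to test compound for 48 hours across five concentrations. Abbreviation: GI50, concentration required for 50% inhibition of growth. TGI denotes the concentration required for complete inhibition of growth.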

system: NCI-H322M lung; experiment: DTP human tumour cell line panel, 48 h

With `O=C(N/N=C/c1ccc(-c2ccc(O)cc2)s1)c1[nH]c2ccc(Br)cc2c1-c1ccccc1` as the molecule, how does the GI50 read?
Its GI50 is 5.18 µM.

And the TGI?
Its TGI is 17.9 µM.

What does the source list for `O=C1C=CC(=CC=C2N(Cc3ccc4ccccc4c3)c3ccccc3N2Cc2ccc3ccccc3c2)C=C1`?
GI50: 2.42 µM; TGI: > 23.9 µM

How did the GI50 turn out when `CCCn1cc(-c2nc(Nc3ccc(C(=O)NCCCCNc4cccc5c4C(=O)N(C4CCC(=O)NC4=O)C5=O)cc3)nc3[nH]ccc23)cn1` (stereo not drawn) was run?
Its GI50 is under 0.01 µM.

And the TGI?
The TGI was over 100 µM.

For `N#C/C(=C1/C(=O)Nc2ccccc21)c1nnc(NC(=O)c2ccc(-n3c(=O)[nH]c4ccccc4c3=O)cc2)s1`, which GI50 is on record?
Its GI50 is 60 µM.

And the TGI?
The TGI was over 100 µM.
